According to the supplement of paper PMC4967469:
Lines with a small IC50 respond at low doses; a fit beyond the top or the lowest dose is shown as a bound at that dose. The AUC spans the tested range (256-fold, ending at the top dose) of the same fit; it is 1 without any effect and falls as sensitivity rises. For some of these results: An inferred top dose was calculated from the reported fits. For some of these results: Drugs with an entry number were screened twice under separate entries, and the two screens often disagree.

How the values were obtained:
Experiment in all cases: Viability of human cancer cell lines after 72 h of drug (GDSC screen)
[1] = compound: Cn1c(=O)n(-c2ccc(C(C)(C)C#N)cc2)c2c3cc(-c4cnc5ccccc5c4)ccc3ncc21 [NVP-BEZ235]
Method: (§1)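 Human cancer cell lines in 384-well plates, medium with 10% serum, drug for 72 h over a 256-fold dose range (nine 2-fold or five 4-fold steps up to the top dose). Adherent lines were fixed and stained with the nucleic acid dye Syto60, suspension lines read with resazurin; signal relative to control wells, capped at 0 and 100%. One two-parameter sigmoid per drug and line, fitted in a mixed model over all curves with the slope shared within a line.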

[2] = compound: Cc1cc([C@@H](C)Nc2ccccc2C(=O)O)c2nc(N3CCOCC3)cc(=O)n2c1 [AZD6482]
Method: as §1

[3] = compound: Cn1ncnc1[C@H]1c2n[nH]c(=O)c3cc(F)cc(c23)N[C@@H]1c1ccc(F)cc1 [BMN-673]; conditions: top dose 10 µM; top dose inferred
Method: as §1

[4] = top dose 5 µM, screen: GDSC drug entry 1066, top dose inferred
[5] = top dose 5.12 µM, screen: GDSC drug entry 156

Cell Line	AUC [1]	IC50 [1]	AUC [2, 4]	IC50 [2, 4]	AUC [2, 5]	IC50 [2, 5]	AUC [3]	IC50 [3]
8-MG-BA (glioma, adherent, top dose 0.25 µM)	0.656	0.0409 µM	–	–	–	–	–	–
22RV1 (prostate, adherent, top dose 0.25 µM)	0.665	0.0506 µM	–	–	–	–	–	–
42-MG-BA (glioma, adherent, top dose 0.25 µM)	0.539	0.0201 µM	–	–	–	–	–	–
201T (lung adenocarcinoma, adherent)	–	–	0.927	> 5 µM	0.917	> 5.12 µM	–	–
201T (lung adenocarcinoma, adherent, top dose 0.25 µM)	0.73	0.085 µM	–	–	–	–	–	–
451Lu (melanoma, adherent, top dose 0.25 µM)	0.694	0.0532 µM	–	–	–	–	–	–
639-V (bladder, adherent, top dose 0.25 µM)	0.683	0.0465 µM	–	–	–	–	–	–
647-V (bladder, adherent, top dose 0.25 µM)	0.762	0.0899 µM	–	–	–	–	–	–
697 (lymphoblastic leukaemia, suspension, top dose 0.25 µM)	0.552	0.021 µM	–	–	–	–	–	–
786-0 (kidney, adherent, top dose 0.25 µM)	0.611	0.0306 µM	–	–	–	–	–	–
5637 (bladder, adherent, top dose 0.25 µM)	0.755	0.0778 µM	–	–	–	–	–	–
8305C (thyroid, adherent, top dose 0.25 µM)	0.643	0.0441 µM	–	–	–	–	–	–
8505C (thyroid, adherent, top dose 0.25 µM)	0.658	0.0441 µM	–	–	–	–	–	–
23132-87 (stomach, adherent, top dose 0.25 µM)	0.818	0.148 µM	–	–	–	–	–	–
A3-KAW (B-cell lymphoma, suspension, top dose 0.25 µM)	0.817	0.105 µM	–	–	–	–	–	–
A4-Fuk (B-cell lymphoma, suspension, top dose 0.25 µM)	0.56	0.0229 µM	–	–	–	–	–	–
A101D (melanoma, adherent, top dose 0.25 µM)	0.545	0.0214 µM	–	–	–	–	–	–
A253 (head and neck, adherent, top dose 0.25 µM)	0.851	0.183 µM	–	–	–	–	–	–
A375 (melanoma, adherent, top dose 0.25 µM)	0.531	0.0187 µM	–	–	–	–	–	–
A388 (skin, adherent, top dose 0.25 µM)	0.759	0.0997 µM	–	–	–	–	–	–
A427 (non-small cell lung carcinoma, adherent, top dose 0.25 µM)	0.838	0.171 µM	–	–	–	–	–	–
A431 (skin, adherent, top dose 0.25 µM)	0.759	0.0841 µM	–	–	–	–	–	–

Cell Line	AUC [1]	IC50 [1]	AUC [2, 4]	IC50 [2, 4]	AUC [2, 5]	IC50 [2, 5]	AUC [3]	IC50 [3]
A498 (kidney, adherent, top dose 0.25 µM)	0.709	0.083 µM	–	–	–	–	–	–
A549 (lung adenocarcinoma, adherent, top dose 0.25 µM)	0.464	0.0123 µM	–	–	–	–	–	–
A673 (rhabdomyosarcoma, adherent, top dose 0.25 µM)	0.989	> 0.25 µM	–	–	–	–	–	–
A704 (kidney, adherent, top dose 0.25 µM)	0.698	0.0552 µM	–	–	–	–	–	–
BB30-HNC (head and neck, adherent)	–	–	0.895	> 5 µM	0.86	4.13 µM	0.623	1.35 µM
BC-3 (B-cell lymphoma, suspension)	–	–	–	–	0.942	> 5.12 µM	–	–
BICR31 (head and neck, adherent)	–	–	–	–	0.849	3.89 µM	–	–
CAL-148 (breast, suspension)	–	–	–	–	0.848	3.38 µM	–	–
CHP-126 (neuroblastoma, suspension)	–	–	0.981	> 5 µM	0.941	> 5.12 µM	0.503	0.636 µM
COR-L279 (small cell lung carcinoma, suspension)	–	–	0.988	> 5 µM	0.956	> 5.12 µM	0.537	0.778 µM
Caov-3 (ovary, adherent)	–	–	–	–	0.985	> 5.12 µM	–	–
DAN-G (pancreas, adherent)	–	–	0.972	> 5 µM	0.974	> 5.12 µM	–	–
DOHH-2 (B-cell lymphoma, suspension)	–	–	–	–	0.883	> 5.12 µM	–	–
ECC12 (stomach, suspension)	–	–	–	–	0.949	> 5.12 µM	–	–
GCIY (stomach, adherent)	–	–	0.789	2.53 µM	0.9	> 5.12 µM	–	–
GMS-10 (glioma, adherent)	–	–	0.915	> 5 µM	0.931	> 5.12 µM	–	–
H-EMC-SS (chondrosarcoma, adherent)	–	–	0.905	> 5 µM	0.936	> 5.12 µM	–	–
HCC1599 (breast, suspension)	–	–	–	–	0.954	> 5.12 µM	–	–
HCC-33 (small cell lung carcinoma, adherent)	–	–	–	–	0.957	> 5.12 µM	–	–
HCE-4 (oesophagus, adherent)	–	–	0.929	> 5 µM	0.983	> 5.12 µM	–	–
HPAC (pancreas, adherent)	–	–	0.88	> 5 µM	0.965	> 5.12 µM	–	–
JHU-011 (head and neck, adherent)	–	–	0.868	4.43 µM	0.944	> 5.12 µM	–	–

Cell Line	AUC [1]	IC50 [1]	AUC [2, 4]	IC50 [2, 4]	AUC [2, 5]	IC50 [2, 5]	AUC [3]	IC50 [3]
KMRC-1 (kidney, adherent)	–	–	0.796	2.5 µM	0.778	2.21 µM	–	–
KMS-12-BM (myeloma, suspension)	–	–	0.851	2.85 µM	0.953	> 5.12 µM	–	–
KP-N-YS (neuroblastoma, adherent)	–	–	–	–	0.966	> 5.12 µM	–	–
MDA-MB-231 (breast, adherent)	–	–	0.933	> 5 µM	0.943	> 5.12 µM	–	–
MDA-MB-436 (breast, adherent)	–	–	0.804	3.31 µM	0.829	4.36 µM	–	–
MG-63 (osteosarcoma, adherent)	–	–	0.702	1.28 µM	0.798	2.9 µM	–	–
MHH-NB-11 (neuroblastoma, adherent)	–	–	–	–	0.97	> 5.12 µM	–	–
MIA-PaCa-2 (pancreas, adherent)	–	–	0.929	> 5 µM	0.977	> 5.12 µM	0.584	1.09 µM
MM1S (myeloma, suspension)	–	–	0.865	4.04 µM	–	–	–	–
MOLM-13 (acute myeloid leukaemia, suspension)	–	–	0.815	2.53 µM	0.864	4.02 µM	0.636	1.45 µM
MY-M12 (leukaemia, suspension)	–	–	0.847	4.41 µM	0.883	> 5.12 µM	–	–
NB17 (neuroblastoma, adherent)	–	–	0.716	1.41 µM	0.899	> 5.12 µM	0.671	2.03 µM
NCI-H64 (small cell lung carcinoma, suspension)	–	–	0.975	> 5 µM	0.853	2.5 µM	–	–
NCI-H510A (small cell lung carcinoma, semi-adherent)	–	–	0.988	> 5 µM	0.988	> 5.12 µM	–	–
NCI-H748 (small cell lung carcinoma, suspension)	–	–	–	–	0.933	> 5.12 µM	–	–
NCI-H1417 (small cell lung carcinoma, suspension)	–	–	0.833	4.1 µM	0.954	> 5.12 µM	0.256	0.108 µM
NCI-H1650 (lung adenocarcinoma, adherent)	–	–	0.921	> 5 µM	–	–	–	–
NCI-H1734 (lung adenocarcinoma, adherent)	–	–	0.957	> 5 µM	0.89	> 5.12 µM	–	–
NCI-H1963 (small cell lung carcinoma, suspension)	–	–	0.99	> 5 µM	0.983	> 5.12 µM	–	–
NCI-H2052 (mesothelioma, adherent)	–	–	0.641	0.861 µM	0.927	> 5.12 µM	–	–
NCI-H2171 (small cell lung carcinoma, suspension)	–	–	–	–	0.992	> 5.12 µM	–	–
NCI-H2196 (small cell lung carcinoma, adherent)	–	–	–	–	0.971	> 5.12 µM	–	–

Cell Line	AUC [1]	IC50 [1]	AUC [2, 4]	IC50 [2, 4]	AUC [2, 5]	IC50 [2, 5]	AUC [3]	IC50 [3]
NCI-H2228 (lung adenocarcinoma, adherent)	–	–	–	–	0.921	> 5.12 µM	–	–
NK-92MI (lymphoid neoplasm, suspension)	–	–	–	–	0.853	3.57 µM	–	–
PA-1 (ovary, adherent)	–	–	0.86	2.8 µM	0.99	> 5.12 µM	–	–
PANC-04-03 (pancreas, adherent)	–	–	0.924	> 5 µM	0.963	> 5.12 µM	–	–
RPMI-8226 (myeloma, suspension)	–	–	0.946	> 5 µM	0.991	> 5.12 µM	0.959	> 10 µM
SAT (head and neck, adherent)	–	–	0.919	> 5 µM	0.916	> 5.12 µM	0.846	> 10 µM
SCC-3 (B-cell lymphoma, suspension)	–	–	–	–	0.997	> 5.12 µM	–	–
SF126 (glioma, adherent)	–	–	0.95	> 5 µM	0.8	2.64 µM	0.759	3.67 µM
SIG-M5 (acute myeloid leukaemia, suspension)	–	–	–	–	0.883	3.17 µM	–	–
SNU-475 (liver, adherent)	–	–	–	–	0.981	> 5.12 µM	–	–
SU-DHL-1 (anaplastic large cell lymphoma, suspension)	–	–	–	–	0.997	> 5.12 µM	–	–
SU-DHL-6 (B-cell lymphoma, suspension)	–	–	0.522	0.353 µM	0.237	0.0721 µM	0.995	> 10 µM
SUP-B15 (lymphoblastic leukaemia, suspension)	–	–	0.85	3.53 µM	0.918	> 5.12 µM	–	–
TALL-1 (T-cell lymphoblastic leukaemia, suspension)	–	–	–	–	0.99	> 5.12 µM	–	–
TE-441-T (rhabdomyosarcoma, adherent)	–	–	–	–	0.958	> 5.12 µM	–	–
THP-1 (acute myeloid leukaemia, suspension)	–	–	0.92	> 5 µM	0.99	> 5.12 µM	–	–
UACC-812 (breast, adherent)	–	–	–	–	0.978	> 5.12 µM	–	–
VM-CUB-1 (bladder, adherent)	–	–	0.96	> 5 µM	0.915	> 5.12 µM	–	–
VMRC-RCW (kidney, adherent)	–	–	–	–	0.834	3 µM	–	–
